PMC6919601, “Identification of Plasmodium dipeptidyl aminopeptidase allosteric inhibitors by high throughput screening” (PLoS ONE, 2019)
The campaign covered roughly 110,000 compounds. About 230 (0.21%) showed an effect of 50% or more. The list shows a part of the results.

Molecular target: DPAP1 (Plasmodium falciparum, UniProt Q8IIJ9)
Experiment: primary screen, percent inhibition; read by cleavage of a fluorogenic dipeptide substrate; higher = more effect of the substance
Set-up: species or system P. falciparum D10 trophozoite lysates; single well
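Further: 30 min substrate incubation versus DMSO and 10 µM JCP410 controls.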

DPAP1, sequence (Q8IIJ9 whole entry, looked up): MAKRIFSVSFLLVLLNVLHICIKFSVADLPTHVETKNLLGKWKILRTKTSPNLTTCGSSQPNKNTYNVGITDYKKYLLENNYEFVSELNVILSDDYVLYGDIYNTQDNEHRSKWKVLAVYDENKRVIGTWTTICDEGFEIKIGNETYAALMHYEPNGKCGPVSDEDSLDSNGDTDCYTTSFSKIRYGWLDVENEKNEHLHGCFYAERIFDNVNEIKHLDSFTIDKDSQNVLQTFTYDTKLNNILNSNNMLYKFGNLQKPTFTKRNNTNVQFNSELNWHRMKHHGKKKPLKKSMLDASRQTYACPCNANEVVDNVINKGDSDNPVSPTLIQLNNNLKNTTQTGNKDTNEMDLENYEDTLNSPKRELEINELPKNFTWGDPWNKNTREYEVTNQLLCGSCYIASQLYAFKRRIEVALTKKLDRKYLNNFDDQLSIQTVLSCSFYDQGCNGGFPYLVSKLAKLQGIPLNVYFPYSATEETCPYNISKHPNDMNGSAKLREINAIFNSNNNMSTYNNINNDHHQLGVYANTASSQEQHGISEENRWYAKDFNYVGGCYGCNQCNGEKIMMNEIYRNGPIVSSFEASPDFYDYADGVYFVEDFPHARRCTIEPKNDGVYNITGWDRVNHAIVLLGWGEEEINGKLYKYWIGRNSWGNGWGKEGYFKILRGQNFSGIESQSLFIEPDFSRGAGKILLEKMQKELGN

Row | SMILES | % Inhibition @ 10 uM [%]
1 | COC(=O)CC[C@@]1(C)CN(C)[C@@H](C)CC1=O | -2.32
2 | N#CC1=C(N)Oc2[nH]nc(-c3ccc4c(c3)OCO4)c2C1c1ccc(Br)cc1 (stereo not shown) | 0.82
3 | CC(=O)c1cccc(NC(=O)c2onc3c2CCCC3)c1 | -1.04
4 | CCN(CC)CCNC(=O)Cn1ncc2c3ccccc3n(Cc3ccccc3F)c2c1=O | 3.4
5 | CCc1nnc(NC(=O)Cc2noc3ccc(C)cc23)s1 | -3.49
6 | COCc1nnc(NC(=O)c2ccc(OC)cc2OC)s1 | 1.91
7 | CCOC(=O)c1c(C)[nH]c(C)c1S(=O)(=O)N(C)CC(=O)Nc1nccs1 | -5.72
8 | CCOc1ccc(C2Oc3c(OC)cccc3C3CC(c4ccccc4O)=NN32)cc1OC (stereo not shown) | 0.0719
9 | Cn1c2c(c3cc(C4CCCCC4)ccc31)CCC/C2=N\O | -6.07
10 | CC(C)(C)c1cc(O)cc(=O)n1-c1ccccc1 | -0.463
11 | CC(C)CCNC(=O)c1cccn1-c1nnc(N2CCCCCC2)s1 | -5.15
12 | COc1cc2c(cc1OC)C(C)N(C(=O)c1ccccc1Cl)CC2 (stereo not shown) | -1.06
13 | COc1ccc(Cc2c(Cl)ncnc2Cl)cc1 | -3.14
14 | CCOC(=O)N1CCC(Nc2nc(N3CCOCC3)nc(N3CCOCC3)n2)CC1 | 0.315
15 | CCc1ccc(OCC(=O)N(Cc2ccco2)Cc2ccc(C)o2)cc1 | -1.07
16 | CCCNC(=O)CSc1cn(CC(=O)N2CCCC2)c2ccccc12 | 5.05
17 | CCOc1cc(C2C(C#N)=C(N)Oc3ncnc(O)c32)ccc1OCCN1CCOCC1 (stereo not shown) | 2.38
18 | Cc1oc2ncnc(N3CCOCC3)c2c1C(=O)N(C)Cc1ccco1 | 4.76
19 | Cc1ccc(-n2nc3c(=O)n(CC(=O)NCCc4ccccc4Cl)nc(C)c3c2C)cc1 | -12.8
20 | COc1ccc(C(=O)NCc2cn3ccc(C)cc3n2)cc1OC | -3.51
21 | Brc1ccccc1CN1CCN(C2CCN(Cc3ccccc3)CC2)CC1 | -4.43
22 | CC1CC(C)CN(CCCNC(=O)C2CCCN(c3ncnc4c3nc3n4CCCCC3)C2)C1 (stereo not shown) | 3.54

Row | SMILES | % Inhibition @ 10 uM [%]
23 | CC(C)(C)NC(=O)CC1Sc2ccccc2NC1=O (stereo not shown) | -8.41
24 | NC(=O)C1CCN(CC2CCCCC2)CC1 | -3.42
25 | COC(=O)c1ccc(/C=C2\C=C(c3ccc(Cl)cc3)OC2=O)cc1 | 3.72
26 | COc1ccc(CNc2cccc(SC)c2)c(OC)c1 | -1.08
27 | CCOC(=O)C1=C(N)OC2=C(C(=O)CC(C)(C)C2)C1c1ccc(C)cc1C (stereo not shown) | -4.35
28 | CC(=O)Nc1ccc(NC(=O)c2ccc([N+](=O)[O-])cc2)cc1 | -4.49
29 | COCCNC(=O)CSc1c2c(nc3ccc(Cl)cc13)CCCC2 | -8.9
30 | C=CCc1cccc2cc(C(=O)Nc3ccc(C(=O)O)cc3)c(=O)oc12 | 0.247
31 | Cc1oncc1C(=O)Nc1cccc2ccccc12 | -4.66
32 | COc1ccc(-c2cc3c(=O)n(CC(=O)N4CCOCC4)ncn3n2)cc1 | -2.85
33 | CCOC(=O)c1cnc2c(C)cc(Cl)cc2c1NCCN(C)C | 5.37
34 | O=C(O)c1nc(-c2ccccc2)[nH]c1C(=O)O | -1.29
35 | CN1CCN(Cc2ccc([N+](=O)[O-])o2)CC1 | 3.1
36 | Oc1ccc(CN2CCN(Cc3ccccc3)CC2)cc1 | 4.04
37 | O=C(Nc1cccnc1Cl)c1cc2ccc3cccnc3c2[nH]1 | 2.77
38 | CSCCN1CCN(C(=O)CN2CCCC2=O)CC1 | -1.17
39 | O=C1c2cccc([N+](=O)[O-])c2C(=O)N1Cc1ccccc1 | 5.54
40 | COc1ccc(C=C2C(=O)NC(=O)NC2=O)cc1OCc1ccc(Cl)cc1Cl | -6.2
41 | COc1ccc(CN2CCN(Cc3cc(OC)c(OC)cc3OC)CC2)cc1Br | -11.6
42 | COCCCNC(=O)CSc1nc2ccsc2c(=O)n1CCc1ccc(Cl)cc1 | 6.81
43 | Cc1sc2c(c1C)c(=O)n(CCc1ccccc1)c(=O)n2Cc1cc(=O)n2cc(Cl)ccc2n1 | 9.43
44 | COc1cc(O)ccc1C1CC(=O)Nc2c1c(=O)nc(SCc1cccc(C)c1)n2C (stereo not shown) | 2.25

Row | SMILES | % Inhibition @ 10 uM [%]
45 | O=C(c1cnn2c(C(F)(F)F)cc(-c3cccs3)nc12)N1CCOCC1 | -0.519
46 | CC(C)OC(=O)c1c2c(n3cc4ccccc4cc13)C(=O)c1ccccc1C2=O | -1.18
47 | COc1ccc(NC(=O)c2c(F)c(F)c(C(=O)Nc3ccc(OC)cc3)c(F)c2F)cc1 | -2.87
48 | CCC(O)c1nc2ccccc2n1CCOc1ccccc1OC (stereo not shown) | 5.2
49 | CCCCN(CCNC(=O)c1nn(C)c2c1CS(=O)(=O)c1ccccc1-2)Cc1ccco1 | -6.34
50 | O=C(O)c1ccc2c(c1)C1C=CCC1C(C(=O)O)N2 (stereo not shown) | 28.2
51 | Cc1ccc2nc(-c3ccc(NC(=O)CN(c4ccc(F)cc4)S(C)(=O)=O)cc3)sc2c1 | -2.67
52 | CCn1ncc(CN(C)C(=O)c2cc3nc(-c4ccc(C)c(C)c4)cc(C(F)(F)F)n3n2)c1C | 2.32
53 | Cc1ccc(C)c(S(=O)(=O)NC(C)C(=O)Nc2ccccc2F)c1 (stereo not shown) | 3.37
54 | O=C(OCCc1ccccc1)c1ccc(-c2ccccc2)cc1 | -0.969
55 | O=C(CCSc1ccccc1)NCCc1ccccc1 | -4.68
56 | O=C(NCc1ccco1)c1ccc(-n2cnc3cccnc32)cc1 | 3.45
57 | CCOc1ccccc1NC(=O)Nc1ccccc1 | -0.414
58 | COC(=O)c1c(NC(=O)c2cccnc2)sc(C(=O)Nc2ccc(C)cc2C)c1C | 1.39
59 | CC(=O)Nc1ccc(NC(=O)c2csc3ccccc23)cc1 | -12
60 | N#CC1=C(N)Oc2[nH]nc(-c3ccccc3)c2C1c1ccccc1C(F)(F)F (stereo not shown) | -3.19
61 | COCCN1C(=O)c2oc3cc(C)c(C)cc3c(=O)c2C1c1ccc(F)cc1 (stereo not shown) | -1.11
62 | O=C1NC(=O)C(=Cc2cccc(F)c2)C(=O)N1 | -0.239
63 | COc1ccc(-n2cccc2/C=C2/C(=N)N3C(=NC2=O)SN=C3S(C)(=O)=O)cc1Cl | -5.22
64 | C=CCOc1c(Br)cc(C2C(C#N)=C(N)OC3=C2C(=O)CCC3)cc1OC (stereo not shown) | 4.61
